Laboratory results as given in the supplement of paper PMC11876631.
± gives the standard deviation of the averaged measurements. Laboratory Escherichia coli strains with one amino-acid change in an essential protein, pooled on minimal glucose agar with carbenicillin or gentamicin at twice the control MIC (plus kanamycin and chloramphenicol for the plasmids), 48 h. Fold change of barcode share against drug-free plates; higher = less susceptible. Active = above 20 in both replicates (the paper's putatively resistant). '<' = one read or none on drug, '>' = one read or none on a drug-free plate. Shares are relative, so most strains fall below 1 when a few take over. Listed are strains with at least 15 reads on both drug-free plates, and hits; most hits rest on fewer reference reads. Replicate rank correlation about 0.5. Edits are read from barcodes.

Biological target: Escherichia coli (laboratory strain)
Test: barcode share on antibiotic plates over drug-free plates; higher = less susceptible
Description: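 A pool of E. coli strains, each edited to carry one amino-acid change in an essential protein, was grown for 48 h on minimal glucose agar with or without antibiotic; strain barcodes were sequenced; mean of two replicates.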

[1] = antibiotic: carbenicillin, 2× MIC (3.1 µg/mL)
[2] = antibiotic: gentamicin, 2× MIC (MIC 0.45 µg/mL)

B1: ribF L54A (protein)
chain: MKLIRGIHNLSQAPQEGCVLTIGNFDGVHRGHRALLQGLQEEGRKRNLPVMVMAFEPQPLELFATDKAPARLTRLREKLRYLAECGVDYVLCVRFDRRFAALTAQNFISDLLVKHLRVKFLAVGDDFRFGAGREGDFLLLQKAGMEYGFDITSTQTFCEGGVRISSTAVRQALADDNLALAESLLGHPFAISGRVVHGDELGRTIGFPTANVPLRRQVSPVKGVYAVEVLGLGEKPLPGVANIGTRPTVAGIRQQLEVHLLDVAMDLYGRHIQVVLRKKIRNEQRFASLDELKAQIARDELTAREFFGLTKPA
- fold change of barcode share [1]: 1.3 ± 1.5
- fold change of barcode share [2]: 0.172 ± 0.23

B2: ribF L54W (protein)
chain: MKLIRGIHNLSQAPQEGCVLTIGNFDGVHRGHRALLQGLQEEGRKRNLPVMVMWFEPQPLELFATDKAPARLTRLREKLRYLAECGVDYVLCVRFDRRFAALTAQNFISDLLVKHLRVKFLAVGDDFRFGAGREGDFLLLQKAGMEYGFDITSTQTFCEGGVRISSTAVRQALADDNLALAESLLGHPFAISGRVVHGDELGRTIGFPTANVPLRRQVSPVKGVYAVEVLGLGEKPLPGVANIGTRPTVAGIRQQLEVHLLDVAMDLYGRHIQVVLRKKIRNEQRFASLDELKAQIARDELTAREFFGLTKPA
- fold change of barcode share [1]: 0.308 ± 0.089
- fold change of barcode share [2]: 0.111 ± 0.15

B3: ribF L54Q (protein)
chain: MKLIRGIHNLSQAPQEGCVLTIGNFDGVHRGHRALLQGLQEEGRKRNLPVMVMQFEPQPLELFATDKAPARLTRLREKLRYLAECGVDYVLCVRFDRRFAALTAQNFISDLLVKHLRVKFLAVGDDFRFGAGREGDFLLLQKAGMEYGFDITSTQTFCEGGVRISSTAVRQALADDNLALAESLLGHPFAISGRVVHGDELGRTIGFPTANVPLRRQVSPVKGVYAVEVLGLGEKPLPGVANIGTRPTVAGIRQQLEVHLLDVAMDLYGRHIQVVLRKKIRNEQRFASLDELKAQIARDELTAREFFGLTKPA
- fold change of barcode share [1]: 0.3 ± 0.036
- fold change of barcode share [2]: < 0.00183

B4: ribF L54D (protein)
chain: MKLIRGIHNLSQAPQEGCVLTIGNFDGVHRGHRALLQGLQEEGRKRNLPVMVMDFEPQPLELFATDKAPARLTRLREKLRYLAECGVDYVLCVRFDRRFAALTAQNFISDLLVKHLRVKFLAVGDDFRFGAGREGDFLLLQKAGMEYGFDITSTQTFCEGGVRISSTAVRQALADDNLALAESLLGHPFAISGRVVHGDELGRTIGFPTANVPLRRQVSPVKGVYAVEVLGLGEKPLPGVANIGTRPTVAGIRQQLEVHLLDVAMDLYGRHIQVVLRKKIRNEQRFASLDELKAQIARDELTAREFFGLTKPA
- fold change of barcode share [1]: 0.31 ± 0.05
- fold change of barcode share [2]: 0.555 ± 0.75

B5: ribF L54P (protein)
chain: MKLIRGIHNLSQAPQEGCVLTIGNFDGVHRGHRALLQGLQEEGRKRNLPVMVMPFEPQPLELFATDKAPARLTRLREKLRYLAECGVDYVLCVRFDRRFAALTAQNFISDLLVKHLRVKFLAVGDDFRFGAGREGDFLLLQKAGMEYGFDITSTQTFCEGGVRISSTAVRQALADDNLALAESLLGHPFAISGRVVHGDELGRTIGFPTANVPLRRQVSPVKGVYAVEVLGLGEKPLPGVANIGTRPTVAGIRQQLEVHLLDVAMDLYGRHIQVVLRKKIRNEQRFASLDELKAQIARDELTAREFFGLTKPA
- fold change of barcode share [1]: 0.326 ± 0.076
- fold change of barcode share [2]: 0.12 ± 0.15

B6: ribF V90A (protein)
chain: MKLIRGIHNLSQAPQEGCVLTIGNFDGVHRGHRALLQGLQEEGRKRNLPVMVMLFEPQPLELFATDKAPARLTRLREKLRYLAECGVDYALCVRFDRRFAALTAQNFISDLLVKHLRVKFLAVGDDFRFGAGREGDFLLLQKAGMEYGFDITSTQTFCEGGVRISSTAVRQALADDNLALAESLLGHPFAISGRVVHGDELGRTIGFPTANVPLRRQVSPVKGVYAVEVLGLGEKPLPGVANIGTRPTVAGIRQQLEVHLLDVAMDLYGRHIQVVLRKKIRNEQRFASLDELKAQIARDELTAREFFGLTKPA
- fold change of barcode share [1]: 0.383 ± 0.24
- fold change of barcode share [2]: 0.00486 ± 0.0041

B7: ribF V90W (protein)
chain: MKLIRGIHNLSQAPQEGCVLTIGNFDGVHRGHRALLQGLQEEGRKRNLPVMVMLFEPQPLELFATDKAPARLTRLREKLRYLAECGVDYWLCVRFDRRFAALTAQNFISDLLVKHLRVKFLAVGDDFRFGAGREGDFLLLQKAGMEYGFDITSTQTFCEGGVRISSTAVRQALADDNLALAESLLGHPFAISGRVVHGDELGRTIGFPTANVPLRRQVSPVKGVYAVEVLGLGEKPLPGVANIGTRPTVAGIRQQLEVHLLDVAMDLYGRHIQVVLRKKIRNEQRFASLDELKAQIARDELTAREFFGLTKPA
- fold change of barcode share [1]: 0.361 ± 0.021
- fold change of barcode share [2]: 0.00385 ± 0.0036

B8: ribF V90Q (protein)
chain: MKLIRGIHNLSQAPQEGCVLTIGNFDGVHRGHRALLQGLQEEGRKRNLPVMVMLFEPQPLELFATDKAPARLTRLREKLRYLAECGVDYQLCVRFDRRFAALTAQNFISDLLVKHLRVKFLAVGDDFRFGAGREGDFLLLQKAGMEYGFDITSTQTFCEGGVRISSTAVRQALADDNLALAESLLGHPFAISGRVVHGDELGRTIGFPTANVPLRRQVSPVKGVYAVEVLGLGEKPLPGVANIGTRPTVAGIRQQLEVHLLDVAMDLYGRHIQVVLRKKIRNEQRFASLDELKAQIARDELTAREFFGLTKPA
- fold change of barcode share [1]: 0.564 ± 0.34
- fold change of barcode share [2]: 0.00411 ± 0.00062

B9: ribF V90D (protein)
chain: MKLIRGIHNLSQAPQEGCVLTIGNFDGVHRGHRALLQGLQEEGRKRNLPVMVMLFEPQPLELFATDKAPARLTRLREKLRYLAECGVDYDLCVRFDRRFAALTAQNFISDLLVKHLRVKFLAVGDDFRFGAGREGDFLLLQKAGMEYGFDITSTQTFCEGGVRISSTAVRQALADDNLALAESLLGHPFAISGRVVHGDELGRTIGFPTANVPLRRQVSPVKGVYAVEVLGLGEKPLPGVANIGTRPTVAGIRQQLEVHLLDVAMDLYGRHIQVVLRKKIRNEQRFASLDELKAQIARDELTAREFFGLTKPA
- fold change of barcode share [1]: 0.312 ± 0.11
- fold change of barcode share [2]: 0.00258 ± 0.002

B10: ribF V90P (protein)
chain: MKLIRGIHNLSQAPQEGCVLTIGNFDGVHRGHRALLQGLQEEGRKRNLPVMVMLFEPQPLELFATDKAPARLTRLREKLRYLAECGVDYPLCVRFDRRFAALTAQNFISDLLVKHLRVKFLAVGDDFRFGAGREGDFLLLQKAGMEYGFDITSTQTFCEGGVRISSTAVRQALADDNLALAESLLGHPFAISGRVVHGDELGRTIGFPTANVPLRRQVSPVKGVYAVEVLGLGEKPLPGVANIGTRPTVAGIRQQLEVHLLDVAMDLYGRHIQVVLRKKIRNEQRFASLDELKAQIARDELTAREFFGLTKPA
- fold change of barcode share [1]: 0.275 ± 0.049
- fold change of barcode share [2]: 0.00605 ± 0.0032

B11: ribF L91A (protein)
chain: MKLIRGIHNLSQAPQEGCVLTIGNFDGVHRGHRALLQGLQEEGRKRNLPVMVMLFEPQPLELFATDKAPARLTRLREKLRYLAECGVDYVACVRFDRRFAALTAQNFISDLLVKHLRVKFLAVGDDFRFGAGREGDFLLLQKAGMEYGFDITSTQTFCEGGVRISSTAVRQALADDNLALAESLLGHPFAISGRVVHGDELGRTIGFPTANVPLRRQVSPVKGVYAVEVLGLGEKPLPGVANIGTRPTVAGIRQQLEVHLLDVAMDLYGRHIQVVLRKKIRNEQRFASLDELKAQIARDELTAREFFGLTKPA
- fold change of barcode share [1]: 0.415 ± 0.27
- fold change of barcode share [2]: 0.0069 ± 0.0077

B12: ribF L91W (protein)
chain: MKLIRGIHNLSQAPQEGCVLTIGNFDGVHRGHRALLQGLQEEGRKRNLPVMVMLFEPQPLELFATDKAPARLTRLREKLRYLAECGVDYVWCVRFDRRFAALTAQNFISDLLVKHLRVKFLAVGDDFRFGAGREGDFLLLQKAGMEYGFDITSTQTFCEGGVRISSTAVRQALADDNLALAESLLGHPFAISGRVVHGDELGRTIGFPTANVPLRRQVSPVKGVYAVEVLGLGEKPLPGVANIGTRPTVAGIRQQLEVHLLDVAMDLYGRHIQVVLRKKIRNEQRFASLDELKAQIARDELTAREFFGLTKPA
- fold change of barcode share [1]: 0.29 ± 0.019
- fold change of barcode share [2]: 0.00316 ± 0.0012

B13: ribF L91Q (protein)
chain: MKLIRGIHNLSQAPQEGCVLTIGNFDGVHRGHRALLQGLQEEGRKRNLPVMVMLFEPQPLELFATDKAPARLTRLREKLRYLAECGVDYVQCVRFDRRFAALTAQNFISDLLVKHLRVKFLAVGDDFRFGAGREGDFLLLQKAGMEYGFDITSTQTFCEGGVRISSTAVRQALADDNLALAESLLGHPFAISGRVVHGDELGRTIGFPTANVPLRRQVSPVKGVYAVEVLGLGEKPLPGVANIGTRPTVAGIRQQLEVHLLDVAMDLYGRHIQVVLRKKIRNEQRFASLDELKAQIARDELTAREFFGLTKPA
- fold change of barcode share [1]: 0.3 ± 0.062
- fold change of barcode share [2]: 0.00153 ± 0.00089

B14: ribF L91D (protein)
chain: MKLIRGIHNLSQAPQEGCVLTIGNFDGVHRGHRALLQGLQEEGRKRNLPVMVMLFEPQPLELFATDKAPARLTRLREKLRYLAECGVDYVDCVRFDRRFAALTAQNFISDLLVKHLRVKFLAVGDDFRFGAGREGDFLLLQKAGMEYGFDITSTQTFCEGGVRISSTAVRQALADDNLALAESLLGHPFAISGRVVHGDELGRTIGFPTANVPLRRQVSPVKGVYAVEVLGLGEKPLPGVANIGTRPTVAGIRQQLEVHLLDVAMDLYGRHIQVVLRKKIRNEQRFASLDELKAQIARDELTAREFFGLTKPA
- fold change of barcode share [1]: 0.46 ± 0.082
- fold change of barcode share [2]: 0.008 ± 0.0021
